Measured values taken from US8268821B2, “Methods and compositions” (priority 2003, dated 2012).

Columns and labels:
[1] = system: carrageenan-induced hyperalgesia in male Wistar rats; assay: Carrageenan paw inflammation and paw flick test of nociception; details: for Post-treatment mean paw withdrawal latency: 140, 150 and 160 minute readings, saline controls 6.22
[2] = system: Electrical Current Threshold (ECT) test in male Wistar rats; assay: Electrical current threshold (ECT) test
[3] = system: streptozotocin-induced diabetic neuropathy in male Wistar rats; assay: Streptozotocin-induced diabetic neuropathy, paw pressure test; details: for pre-drug mean paw withdrawal threshold: times -20, -10 and 0; for post-drug mean paw withdrawal threshold: +20, +30 and +40 min, saline 30.94

CCOC(=O)Nc1ccc(NCc2ccc(F)cc2)nc1N [flupirtine]
Pre-treatment mean paw withdrawal latency ([1]; flupirtine 5 mg/kg ip alone group, readings -20, -10 and 0 before carrageenan and drug): 10.90 s | Post-treatment mean paw withdrawal latency ([1]; flupirtine 5 mg/kg ip alone): 5.82 s | Pre-treatment mean paw withdrawal latency ([1]; flupirtine 10 mg/kg alone group, readings -20, -10 and 0): 10.97 s | Post-treatment mean paw withdrawal latency ([1]; flupirtine 10 mg/kg alone): 5.51 s | effect on carrageenan-induced hyperalgesia ([1]; flupirtine 5 and 10 mg/kg alone): no effect | standardized ECT value (ratio to pre-drug mean), mean ([2]; flupirtine 5 mg/kg ip, post (10-30 minutes), saline post 1.27): 1.54 | standardized ECT value (ratio to pre-drug mean), mean ([2]; flupirtine 5 mg/kg ip, pre): 1.00 | standardized ECT value (ratio to pre-drug mean), mean ([2]; flupirtine 10 mg/kg ip, post, saline post 1.27): 1.92 | standardized ECT value (ratio to pre-drug mean), mean ([2]; flupirtine 10 mg/kg ip, pre): 1.00 | pre-drug mean paw withdrawal threshold ([3]; flupirtine 5 mg/kg alone group, non diabetic controls 44.7): 28.25 grams | post-drug mean paw withdrawal threshold ([3]; flupirtine 5 mg/kg alone ip, non diabetic controls 44.7): 31.90 grams | pre-drug mean paw withdrawal threshold ([3]; flupirtine 10 mg/kg alone group): 27.89 grams | post-drug mean paw withdrawal threshold ([3]; flupirtine 10 mg/kg alone ip, non diabetic controls 44.7): 41.00 grams

CN1CC[C@]23c4c5ccc(O)c4O[C@H]2[C@@H](O)C=C[C@H]3[C@H]1C5 [morphine]
Pre-treatment mean paw withdrawal latency ([1]; morphine 0.4 mg/kg ip alone group, readings -20, -10 and 0): 12.10 s | Post-treatment mean paw withdrawal latency ([1]; morphine 0.4 mg/kg ip alone): 5.76 s | Pre-treatment mean paw withdrawal latency ([1]; morphine 0.8 mg/kg alone group, readings -20, -10 and 0): 10.02 s | Post-treatment mean paw withdrawal latency ([1]; morphine 0.8 mg/kg alone): 4.88 s | Pre-treatment mean paw withdrawal latency ([1]; morphine 1.6 mg/kg alone group, readings -20, -10 and 0): 10.30 s | Post-treatment mean paw withdrawal latency ([1]; morphine 1.6 mg/kg alone): 8.88 s | effect on carrageenan-induced hyperalgesia ([1]; morphine 0.4 and 0.8 mg/kg alone): no effect | standardized ECT value (ratio to pre-drug mean), mean ([2]; morphine 0.4 mg/kg ip, post, saline post 1.27): 1.46 | standardized ECT value (ratio to pre-drug mean), mean ([2]; morphine 0.4 mg/kg ip, pre): 1.00 | antinociception in ECT test ([2]; morphine 0.4 mg/kg, p<0.001 vs saline): significant antinociception | pre-drug mean paw withdrawal threshold ([3]; morphine 1.6 mg/kg alone group): 28.10 grams | post-drug mean paw withdrawal threshold ([3]; morphine 1.6 mg/kg alone ip, non diabetic controls 44.7): 31.90 grams | reversal of diabetes-induced hyperalgesia ([3]; morphine 1.6 mg/kg alone, p>0.05 vs before drug): no significant reversal | pre-drug mean paw withdrawal threshold ([3]; morphine 3.2 mg/kg alone group): 26.67 grams | post-drug mean paw withdrawal threshold ([3]; morphine 3.2 mg/kg alone ip, non diabetic controls 44.7): 35.00 grams | antinociception in diabetic neuropathy ([3]; morphine 3.2 mg/kg given alone, p<0.05, less than morphine 1.6 mg/kg with flupirtine 10 mg/kg (p<0.001)): significant antinociception
